Laboratory results from patent US10273244B2, “Substituted hexahydropyrrolo[3,4-b]pyrroles and hexahydrocyclopenta[c]pyrroles as dopamine receptor modulators” (INDIVIOR UK LIMITED, priority 2015, dated 2019).

Molecular target: human dopamine type 3 receptor (CHO-hD3 membranes) (Homo sapiens (Human), UniProt P35462)
Settings: displacement of 0.3 nM [3H]-Spiperone

UniProt P35462, sequence (P35462 whole entry): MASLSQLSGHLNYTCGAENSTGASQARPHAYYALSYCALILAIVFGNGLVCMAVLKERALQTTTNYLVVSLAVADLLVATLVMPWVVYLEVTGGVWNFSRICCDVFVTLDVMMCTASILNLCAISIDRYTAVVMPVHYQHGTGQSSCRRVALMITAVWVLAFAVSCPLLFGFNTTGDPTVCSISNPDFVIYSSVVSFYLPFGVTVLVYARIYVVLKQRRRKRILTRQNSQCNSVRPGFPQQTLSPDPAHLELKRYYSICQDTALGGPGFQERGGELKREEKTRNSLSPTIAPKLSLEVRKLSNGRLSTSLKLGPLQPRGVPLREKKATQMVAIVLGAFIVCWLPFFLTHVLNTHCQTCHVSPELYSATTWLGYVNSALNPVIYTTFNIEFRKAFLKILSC

Row | D3 pKi | SMILES
1 | 8.25 | Cn1c(SCCCN2CC3CCN(c4ccccc4C(F)(F)F)C3C2)nnc1-c1ccncc1 (stereo not drawn) [Example 155, 4-{4-methyl-5-[(3-{1-[2-(trifluoromethyl)phenyl]-octahydropyrrolo[3,4-b]pyrrol-5-yl}propyl)sulfanyl]-4H-1,2,4-triazol-3-yl}pyridine]
2 | 8.75 | Cl.Cl.Cl.Cn1c(SCCCN2C[C@@H]3CCN(c4ccccc4C(F)(F)F)[C@@H]3C2)nnc1-c1ccncc1 [Example 158, 4-[5-({3-[(3aS,6aS or 3aR,6aR)-1-[2-(trifluoromethyl)phenyl]-octahydropyrrolo[3,4-b]pyrrol-5-yl]propyl}sulfanyl)-4-methyl-4H-1,2,4-triazol-3-yl]pyridine trihydrochloride]
3 | 7.62 | Cl.Cl.Cl.Cn1c(SCCCN2C[C@H]3CCN(c4ccccc4C(F)(F)F)[C@H]3C2)nnc1-c1ccncc1 [Example 159, 4-[5-({3-[(3aR,6aR or 3aS,6aS)-1-[2-(trifluoromethyl)phenyl]-octahydropyrrolo[3,4-b]pyrrol-5-yl]propyl}sulfanyl)-4-methyl-4H-1,2,4-triazol-3-yl]pyridine trihydrochloride]
4 | 8.75 | Cn1c(SCCCN2CC3CCN(c4ccc(C(F)(F)F)cc4)C3C2)nnc1-c1ccccn1 (stereo not drawn) [Example 160, 2-{4-methyl-5-[(3-{1-[4-(trifluoromethyl)phenyl]-octahydropyrrolo[3,4-b]pyrrol-5-yl}propyl)sulfanyl]-4H-1,2,4-triazol-3-yl}pyridine]
5 | 8.29 | Cn1c(SCCCN2CC3CCN(c4ccccc4C(F)(F)F)C3C2)nnc1-c1ccccn1 (stereo not drawn) [Example 161, 2-{4-methyl-5-[(3-{1-[2-(trifluoromethyl)phenyl]-octahydropyrrolo[3,4-b]pyrrol-5-yl}propyl)sulfanyl]-4H-1,2,4-triazol-3-yl}pyridine]
6 | 8.59 | Cc1cc(-c2nnc(SCCCN3CC4CCN(c5ccc(C(F)(F)F)cc5)C4C3)n2C)on1 (stereo not drawn) [Example 163, 4-methyl-3-(3-methyl-1,2-oxazol-5-yl)-5-[(3-{1-[4-(trifluoromethyl)phenyl]-octahydropyrrolo[3,4-b]pyrrol-5-yl}propyl)sulfanyl]-4H-1,2,4-triazole]
7 | 8.26 | Cc1ncsc1-c1nnc(SCCCN2CC3CCN(c4ccc(C(F)(F)F)cc4)C3C2)n1C (stereo not drawn) [Example 164, 4-methyl-3-(4-methyl-1,3-thiazol-5-yl)-5-[(3-{1-[4-(trifluoromethyl)phenyl]-octahydropyrrolo[3,4-b]pyrrol-5-yl}propyl)sulfanyl]-4H-1,2,4-triazole]
8 | 8.13 | Cn1c(SCCCN2CC3CCN(c4ccc(C(F)(F)F)cc4)C3C2)nnc1-c1cc[nH]c(=O)c1 (stereo not drawn) [Example 165, 4-{4-methyl-5-[(3-{1-[4-(trifluoromethyl)phenyl]-octahydropyrrolo[2,3-c]pyrrol-5-yl}propyl)sulfanyl]-4H-1,2,4-triazol-3-yl}-1,2-dihydropyridin-2-one]
9 | 7.81 | Cn1c(SCCCN2C[C@@H]3CCN(c4ccc(C(F)(F)F)cc4)[C@@H]3C2)nnc1-c1cc[nH]c(=O)c1 [Example 166, 4-[5-({3-[(3aS,6aS or 3aR,6aR)-1-[4-(trifluoromethyl)phenyl]-octahydropyrrolo[2,3-c]pyrrol-5-yl]propyl}sulfanyl)-4-methyl-4H-1,2,4-triazol-3-yl]-1,2-dihydropyridin-2-one]
10 | 8.07 | Cn1c(SCCCN2C[C@@H]3CCN(c4ccc(C(F)(F)F)cc4)[C@@H]3C2)nnc1-c1cc[nH]c(=O)c1 [Example 167, 4-[5-({3-[(3aR,6aR or 3aS,6aS)-1-[4-(trifluoromethyl)phenyl]-octahydropyrrolo[2,3-c]pyrrol-5-yl]propyl}sulfanyl)-4-methyl-4H-1,2,4-triazol-3-yl]-1,2-dihydropyridin-2-one]
11 | 7.66 | Cn1c(SCCCN2CC3CCN(c4c(F)cccc4F)C3C2)nnc1-c1cc[nH]c(=O)c1 (stereo not drawn) [Example 173, 4-[5-({3-[1-(2,6-difluorophenyl)-octahydropyrrolo[3,4-b]pyrrol-5-yl]propyl}sulfanyl)-4-methyl-4H-1,2,4-triazol-3-yl]-1,2-dihydropyridin-2-one]
12 | 7.87 | Cn1c(SCCCN2CC3CCN(c4ccccc4C(F)(F)F)C3C2)nnc1-c1cc[nH]c(=O)c1 (stereo not drawn) [Example 174, 4-{4-methyl-5-[(3-{1-[2-(trifluoromethyl)phenyl]-octahydropyrrolo[3,4-b]pyrrol-5-yl}propyl)sulfanyl]-4H-1,2,4-triazol-3-yl}-1,2-dihydropyridin-2-one]
13 | 8.35 | Cn1c(SCCCN2CC3CCN(c4ccc(C(F)(F)F)cc4)C3C2)nnc1-c1ccc(=O)[nH]c1 (stereo not drawn) [Example 175, 5-{4-methyl-5-[(3-{1-[4-(trifluoromethyl)phenyl]-octahydropyrrolo[3,4-b]pyrrol-5-yl}propyl)sulfanyl]-4H-1,2,4-triazol-3-yl}-1,2-dihydropyridin-2-one]
14 | 8.33 | Cn1c(SCCCN2CC3CCN(c4ccc(F)cc4)C3C2)nnc1-c1ccc(=O)[nH]c1 (stereo not drawn) [Example 176, 5-[5-({3-[1-(4-fluorophenyl)-octahydropyrrolo[2,3-c]pyrrol-5-yl]propyl}sulfanyl)-4-methyl-4H-1,2,4-triazol-3-yl]-1,2-dihydropyridin-2-one]
15 | 7.84 | Cn1c(SCCCN2CC3CCN(c4c(F)cccc4F)C3C2)nnc1-c1ccc(=O)[nH]c1 (stereo not drawn) [Example 177, 5-[5-({3-[1-(2,6-difluorophenyl)-octahydropyrrolo[3,4-b]pyrrol-5-yl]propyl}sulfanyl)-4-methyl-4H-1,2,4-triazol-3-yl]-1,2-dihydropyridin-2-one]
16 | 9.07 | Cn1c(SCCCN2CC3CCN(c4cccc(C(F)(F)F)c4)C3C2)nnc1-c1ccc(=O)[nH]c1 (stereo not drawn) [Example 178, 5-{4-methyl-5-[(3-{1-[3-(trifluoromethyl)phenyl]-octahydropyrrolo[3,4-b]pyrrol-5-yl}propyl)sulfanyl]-4H-1,2,4-triazol-3-yl}-1,2-dihydropyridin-2-one]
17 | 8.10 | Cn1c(SCCCN2CC3CCN(c4ccccc4C(F)(F)F)C3C2)nnc1-c1ccc(=O)[nH]c1 (stereo not drawn) [Example 179, 5-{4-methyl-5-[(3-{1-[2-(trifluoromethyl)phenyl]-octahydropyrrolo[3,4-b]pyrrol-5-yl}propyl)sulfanyl]-4H-1,2,4-triazol-3-yl}-1,2-dihydropyridin-2-one]
18 | 8.21 | Cl.Cl.Cn1c(SCCCN2C[C@@H]3CCN(c4ccccc4C(F)(F)F)[C@@H]3C2)nnc1-c1ccc(=O)[nH]c1 [Example 182, 5-[5-({3-[(3aS,6aS or 3aR,6aR)-1-[2-(trifluoromethyl)phenyl]-octahydropyrrolo[3,4-b]pyrrol-5-yl]propyl}sulfanyl)-4-methyl-4H-1,2,4-triazol-3-yl]-1,2-dihydropyridin-2-one dihydrochloride]
19 | 7.12 | Cl.Cl.Cn1c(SCCCN2C[C@H]3CCN(c4ccccc4C(F)(F)F)[C@H]3C2)nnc1-c1ccc(=O)[nH]c1 [Example 183, 5-[5-({3-[(3aR,6aR or 3aS,6aS)-1-[2-(trifluoromethyl)phenyl]-octahydropyrrolo[3,4-b]pyrrol-5-yl]propyl}sulfanyl)-4-methyl-4H-1,2,4-triazol-3-yl]-1,2-dihydropyridin-2-one dihydrochloride]
20 | 8.33 | Cn1nccc1-c1nnc(SCCCN2CC3CCN(c4c(F)cccc4F)C3C2)n1C (stereo not drawn) [Example 184, 3-({3-[1-(2,6-difluorophenyl)-octahydropyrrolo[3,4-b]pyrrol-5-yl]propyl}sulfanyl)-4-methyl-5-(1-methyl-1H-pyrazol-5-yl)-4H-1,2,4-triazole]
21 | 8.45 | Cn1nccc1-c1nnc(SCCCN2CC3CCN(c4ccccc4C(F)(F)F)C3C2)n1C (stereo not drawn) [Example 185, 4-methyl-3-(1-methyl-1H-pyrazol-5-yl)-5-[(3-{1-[2-(trifluoromethyl)phenyl]-octahydropyrrolo[3,4-b]pyrrol-5-yl}propyl)sulfanyl]-4H-1,2,4-triazole]
22 | 8.79 | Cl.Cl.Cn1nccc1-c1nnc(SCCCN2C[C@@H]3CCN(c4ccccc4C(F)(F)F)[C@@H]3C2)n1C [Example 188, 3-({3-[(3aS,6aS or 3aR,6aR)-1-[2-(trifluoromethyl)phenyl]-octahydropyrrolo[3,4-b]pyrrol-5-yl]propyl}sulfanyl)-4-methyl-5-(1-methyl-1H-pyrazol-5-yl)-4H-1,2,4-triazole dihydrochloride]
23 | 7.36 | Cl.Cl.Cn1nccc1-c1nnc(SCCCN2C[C@H]3CCN(c4ccccc4C(F)(F)F)[C@H]3C2)n1C [Example 189, 3-({3-[(3aR,6aR or 3aS,6aS)-1-[2-(trifluoromethyl)phenyl]-octahydropyrrolo[3,4-b]pyrrol-5-yl]propyl}sulfanyl)-4-methyl-5-(1-methyl-1H-pyrazol-5-yl)-4H-1,2,4-triazole dihydrochloride]
24 | 7.73 | Cc1ncccc1-c1nnc(SCCCN2CC3CCN(c4c(F)cccc4F)C3C2)n1C (stereo not drawn) [Example 190, 3-[5-({3-[1-(2,6-difluorophenyl)-octahydropyrrolo[3,4-b]pyrrol-5-yl]propyl}sulfanyl)-4-methyl-4H-1,2,4-triazol-3-yl]-2-methylpyridine]
25 | 7.56 | Cn1c(SCCCN2CC3CCN(c4ccc(C(F)(F)F)cc4)C3C2)nnc1C(=O)N1CCCC1 (stereo not drawn) [Example 191, 4-methyl-3-(pyrrolidine-1-carbonyl)-5-[(3-{1-[4-(trifluoromethyl)phenyl]-octahydropyrrolo[3,4-b]pyrrol-5-yl}propyl)sulfanyl]-4H-1,2,4-triazole]
26 | 8.19 | Cn1c(SCCCN2C[C@@H]3CCN(c4ccc(C(F)(F)F)cc4)[C@@H]3C2)nnc1-c1ccc(=O)n(C)c1 [Example 193, 5-[5-({3-[(3aS,6aS or 3aR,6aR)-1-[4-(trifluoromethyl)phenyl]-octahydropyrrolo[3,4-b]pyrrol-5-yl]propyl}sulfanyl)-4-methyl-4H-1,2,4-triazol-3-yl]-1-methyl-1,2-dihydropyridin-2-one]
27 | 8.28 | Cn1c(SCCCN2C[C@H]3CCN(c4ccc(C(F)(F)F)cc4)[C@H]3C2)nnc1-c1ccc(=O)n(C)c1 [Example 194, 5-[5-({3-[(3aR,6aR or 3aS,6aS)-1-[4-(trifluoromethyl)phenyl]-octahydropyrrolo[3,4-b]pyrrol-5-yl]propyl}sulfanyl)-4-methyl-4H-1,2,4-triazol-3-yl]-1-methyl-1,2-dihydropyridin-2-one]
